US20230365653A1 (MABWELL SHANGHAI BIOSCIENCE, published 2023)
Values belong to the binder of their own block, whether it stands above or below them.

Columns and labels:
[1] = molecular target: T1, recombinant human TGF-β 1 protein (Cat: CA59, Novoprotein Scientific Inc.) (human, UniProt P01137 in part); assay: BLI (Octet QKe), binder captured on AHC biosensor, 1:1 fit
T1 construct: Bought reagent

[2] = molecular target: T1, recombinant human TGF-β 1 protein (Cat: …); assay: ELISA, target coated at 1 µg/ml, HRP-anti-human Fc detection
[3] = molecular target: T2, human TGF-β 2 (Cat: CJ79, Novoprotein Scientific Inc.) (human, UniProt P61812 303-414); assay: as above
T2 construct: Bought reagent; also called recombinant human TGF-β 2 protein
T2 sequence (looked up): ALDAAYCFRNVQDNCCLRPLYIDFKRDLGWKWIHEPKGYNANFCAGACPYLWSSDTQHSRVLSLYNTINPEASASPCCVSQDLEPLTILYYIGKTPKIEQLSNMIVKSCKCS

[4] = molecular target: T3, recombinant human PD-L1-his protein (Accession No.: NP_054862.1, 19 aa-238 aa) (human, UniProt Q9NZQ7 in part); assay: BLI (Octet QKe), binder captured on AHC biosensor, analyte 60 nM, 1:1 fit
T3 construct: range 19-238; also called recombinant human PD-L1 extracellular domain protein; not shown: his tag
T3 sequence (Q9NZQ7 19-238 limits assumed): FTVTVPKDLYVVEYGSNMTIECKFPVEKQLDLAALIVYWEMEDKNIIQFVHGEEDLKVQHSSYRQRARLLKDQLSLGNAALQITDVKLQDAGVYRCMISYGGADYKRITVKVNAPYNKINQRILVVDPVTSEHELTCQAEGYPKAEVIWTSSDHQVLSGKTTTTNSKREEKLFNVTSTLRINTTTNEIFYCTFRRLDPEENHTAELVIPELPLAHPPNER

[5] = molecular target: T1, recombinant human TGF-β 1 protein (Cat: …); assay: as above

T1 sequence (P01137 279-390 limits assumed): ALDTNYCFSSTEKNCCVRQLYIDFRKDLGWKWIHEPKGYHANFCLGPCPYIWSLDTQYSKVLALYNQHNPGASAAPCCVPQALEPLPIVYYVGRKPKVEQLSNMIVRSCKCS

B2: anti-human PD-L1 antibody/TGF-β RII fusion protein H182-MUT4-TGF-β RII (other)
heavy: EVQLVQSGAEVKKPGATVKISCKVSGFNIKDIYMHWVQQAPGKGLEWMGRIDPANANTKYDPKFQDRVTITADTSTNTAYMELSSLRSEDTAVYYCASGQLGPLGFDYWGQGTTVTVSS[human IgG1 constant region not written out]GGGGSGGGGSGGGGSGGGGSGIPPHVQKSVNNDMIVTDNNGAVKFPQLCKFCDVRFSTCDNQKSCMSNCSITSICEKPQEVCVAVWRKNDENITLETVCHDPKLPYHDFILEDAASPKCIMKEKKKPGETFFMCSCSSDECNDNIIFSEEYNTSNPD
light: DIQMTQSPSSLSASVGDRVTITCRASQDISNYLNWYQQKPGKAPKLLLYYTSRLHSGVPSRFSGSGSGTDYTLTISSLQPEDFATYFCQQGAGRPYTFGGGTKVEIKRTVAAPSVFIFPPSDEQLKSGTASVVCLLNNFYPREAKVQWKVDNALQSGNSQESVTEQDSKDSTYSLSSTLTLSKADYEKHKVYACEVTHQGLSSPVTKSFNRGEC
notes: Bifunctional fusion: the antibody heavy chain is linked at its C-terminus through a linker to the TGF-β RII extracellular domain; 9; also called parent; original
Kd [4]: 0.381 nM
Kd [5]: 1.45 nM

B3: anti-human PD-L1 antibody/TGF-β RII fusion protein mutant H182-MUT4-TGF-β RIIm2 (other)
heavy: EVQLVQSGAEVKKPGATVKISCKVSGFNIKDIYMHWVQQAPGKGLEWMGRIDPANANTKYDPKFQDRVTITADTSTNTAYMELSSLRSEDTAVYYCASGQLGPLGFDYWGQGTTVTVSS[human IgG1 constant region not written out]GGGGSGGGGSGGGGSGGGGSGIPPHVNKSVNNDMIVTDNNGAVKFPQLCKFCDVRFSTCDNQKSCMSNCSITSICEKPQEVCVAVWRKNDENITLETVCHDPKLPYHDFILEDAASPKCIMKEKKKPGETFFMCSCSSDECNDNIIFSEEYNTSNPD
light: B2 light
notes: also called H182-MUT4-H-TGF-β RII m2
Kd [4]: 0.305 nM
Kd [5]: 1.34 nM

Now from value to binder:

Kd [1]: 2.46 nM
EC50 [2]: 0.394 nM
EC50 [3]: 18 nM
B1: anti-human PD-L1 nanobody/TGF-β RII fusion protein mutant hzF2-TGF-β RIIm2 (other)
chain (part 1 of 2): EVQLVESGGGLVQPGGSLRLSCAASRDSDEGASCMGWFRQAPGKEREGVAIIFNAGERTDYGDSVKGRFTISRDNAKNTLYLQMNSLRAEDTAVYYCATVWCGSWVARSWGQGTLVTVSSAS[human IgG1 Fc with changes not written out]
chain (part 2 of 2): IPPHVNKSVNNDMIVTDNNGAVKFPQLCKFCDVRFSTCDNQKSCMSNCSITSICEKPQEVCVAVWRKNDENITLETVCHDPKLPYHDFILEDAASPKCIMKEKKKPGETFFMCSCSSDECNDNIIFSEEYNTSNPD
notes: 23; It was purified on Protein A, captured by anti-human IgG Fc biosensors and detected with anti-human Fc, so it carries a human Fc; not shown: linker peptide; amino

Kd [4]: 0.311 nM
Kd [5]: 1.22 nM
B4: anti-human PD-L1 antibody/TGF-β RII fusion protein mutant H182-MUT4-TGF-β RIIm3 (other)
heavy: EVQLVQSGAEVKKPGATVKISCKVSGFNIKDIYMHWVQQAPGKGLEWMGRIDPANANTKYDPKFQDRVTITADTSTNTAYMELSSLRSEDTAVYYCASGQLGPLGFDYWGQGTTVTVSS[human IgG1 constant region not written out]GGGGSGGGGSGGGGSGGGGSGIPPHVQKSVNNTMIVTDNNGAVKFPQLCKFCDVRFSTCDNQKSCMSNCSITSICEKPQEVCVAVWRKNDENITLETVCHDPKLPYHDFILEDAASPKCIMKEKKKPGETFFMCSCSSDECNDNIIFSEEYNTSNPD
light: B2 light
notes: also called H182-MUT4-H-TGF-β RII m3

Kd [4]: 0.297 nM
Kd [5]: 1.14 nM
B5: anti-human PD-L1 antibody/TGF-β RII fusion protein mutant H182-MUT4-TGF-β RIIm1 (other)
heavy: EVQLVQSGAEVKKPGATVKISCKVSGFNIKDIYMHWVQQAPGKGLEWMGRIDPANANTKYDPKFQDRVTITADTSTNTAYMELSSLRSEDTAVYYCASGQLGPLGFDYWGQGTTVTVSS[human IgG1 constant region not written out]GGGGSGGGGSGGGGSGGGGSGIPPHVQKSVNNDMIVTDNNTAVKFPQLCKFCDVRFSTCDNQKSCMSNCSITSICEKPQEVCVAVWRKNDENITLETVCHDPKLPYHDFILEDAASPKCIMKEKKKPGETFFMCSCSSDECNDNIIFSEEYNTSNPD
light: B2 light
notes: also called H182-MUT4-H-TGF-β RII m1
